# According to the supplement of paper PMC3334620:
# The full ranking holds about 33,000 sequences; the median of “E-score (-0.5 to 0.5)” is about -0.054, and the highest 2% start at about 0.35. Some of the results follow.
# Target: T1, Stb5 (UniProt P38699)
# T1 sequence: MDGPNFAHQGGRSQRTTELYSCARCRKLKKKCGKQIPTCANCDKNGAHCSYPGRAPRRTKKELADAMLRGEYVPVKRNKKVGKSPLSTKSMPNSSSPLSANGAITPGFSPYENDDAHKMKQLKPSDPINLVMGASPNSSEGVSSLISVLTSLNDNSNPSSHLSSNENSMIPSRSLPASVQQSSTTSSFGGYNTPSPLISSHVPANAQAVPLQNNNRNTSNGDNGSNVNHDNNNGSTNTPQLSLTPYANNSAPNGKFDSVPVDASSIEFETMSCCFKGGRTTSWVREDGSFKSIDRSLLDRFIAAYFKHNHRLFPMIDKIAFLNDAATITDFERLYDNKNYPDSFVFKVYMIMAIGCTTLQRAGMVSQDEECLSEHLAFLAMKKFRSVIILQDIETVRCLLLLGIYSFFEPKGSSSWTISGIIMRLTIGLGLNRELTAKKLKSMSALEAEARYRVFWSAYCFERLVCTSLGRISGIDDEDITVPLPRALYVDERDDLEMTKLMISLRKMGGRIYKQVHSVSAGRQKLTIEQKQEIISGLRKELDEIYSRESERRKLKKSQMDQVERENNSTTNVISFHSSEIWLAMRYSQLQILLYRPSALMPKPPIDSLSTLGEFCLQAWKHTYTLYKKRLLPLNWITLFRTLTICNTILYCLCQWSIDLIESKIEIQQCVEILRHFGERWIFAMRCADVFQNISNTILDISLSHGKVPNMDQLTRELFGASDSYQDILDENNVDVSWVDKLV
# Experiment: PBM E-score (8-mer binding enrichment) (E-score (-0.5 to 0.5)); higher = stronger / more preferred TF binding; most listed sequences are background and not binding sites
# Conditions: protein concentration: 200 nM; construct: GST-full length
# Procedure, shortened: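 E-scores (a modified Wilcoxon-Mann-Whitney statistic) were assigned by the Universal PBM Analysis Suite to every ungapped eight-base word pooled with its reverse complement. The input came from universal all-10-mer Agilent arrays made double-stranded by primer extension and probed with GST-tagged yeast transcription factors at about 100-200 nM. Fluorescent anti-GST detected bound protein, and masliner normalised the scans.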
row,Sequence,PBM E-score
1,AGCCTCGG,0.0711
2,AGATGTCA,0.00393
3,ACGTACAC,-0.132
4,TATTATAA,0.142
5,AGCCATAG,-0.371
6,AGTGGTGA,0.102
7,CCGGACGC,0.286
8,ACAAAACA,-0.184
9,ATGTAGTG,-0.244
10,CTCACAGA,-0.314
11,GTTATAAA,0.21
12,GTTAGTAA,-0.134
13,AAGACTTG,-0.158
14,AGTTGCAG,-0.175
15,ACTTGATA,0.00748
16,CTGCGCCC,-0.0749
17,CGATTGCG,0.106
18,CCTTTACC,0.0697
19,AAATAATC,0.0386
20,ACGCGTTC,-0.105
21,TGGGCAAA,-0.127
22,CGACTCCG,0.252
23,AAAGCGCA,0.113
24,CTAAAATA,0.0941
25,GAGCCATC,-0.246

row,Sequence,PBM E-score
1,CCACGAAA,-0.155
2,CCCTCCCG,-0.028
3,AACTCCCG,0.248
4,TTACTCAA,0.0261
5,CATGCCAA,-0.213
6,ATGAAAGA,-0.0982
7,ACTCGGCC,0.139
8,CTTCCCCC,-0.119
9,ATGCATAC,-0.308
10,CGAAACGA,0.11
11,AAGTTTTG,-0.0961
12,GCGGGCGA,0.0564
13,AGATCTAC,-0.195
14,ATAGATGC,0.0432
15,CAGTCGGA,0.292
16,CTGAGTGC,-0.153
17,CTTGGTTA,0.0276
18,CTACTAAA,0.0158
19,GACCCGTA,0.0709
20,CCGGGCCA,0.0869
21,GTAAAGCA,-0.195
22,ATAAATAC,0.0349
23,AAGTAATG,-0.146
24,CGGACGGC,0.234
25,AATGCTAG,-0.261

row,Sequence,PBM E-score
1,ATGTGGCA,-0.0856
2,AGTTCGCC,-0.139
3,AAGCGATA,-0.286
4,CGGAGATC,0.159
5,CAACTCTA,-0.133
6,ACCTTATG,-0.186
7,GTCAATAA,0.0835
8,TATGATGA,-0.0881
9,CGCTACAA,0.0432
10,CATGATGG,-0.302
11,CGGCACAC,0.0721
12,ACAGCCTG,-0.309
13,AGGTAGCC,-0.211
14,GAAGCAGC,-0.148
15,CATATTGC,0.0446
16,CATCGGCC,0.263
17,ATAACACA,-0.107
18,AAGTAGTG,-0.168
19,ATTGTTGA,-0.236
20,ATGCAAGC,-0.182
21,ATAGATCA,-0.0273
22,AGTTAGAC,-0.146
23,GGTAGCAA,0.0542
24,TATCTAGA,-0.237
25,CTGGCAAC,-0.135

row,Sequence,PBM E-score
1,AGTCAGAA,-0.162
2,ACGAAGAG,-0.096
3,AGAGCTAA,-0.215
4,CCGGATGC,0.166
5,ATAGTTGA,-0.203
6,ATACTCTG,0.0573
7,AAGGAGAA,-0.179
8,CTTGATTC,0.0124
9,ACCCAACA,-0.144
10,ATCTAATC,-0.0546
11,CTAGTAAG,-0.147
12,CTTGAGTA,-0.0445
13,ACAGAAGG,-0.102
14,ACGCTACT,0.0893
15,ATTTATAA,0.123
16,AGATCATC,-0.152
17,CAGGCAGC,0.072
18,CCCCCCAC,-0.252
19,TACATGTA,0.046
20,CCAGACTA,-0.258
21,ATGGGACC,0.0255
22,CCAATTAG,-0.119
23,CTAGCGCA,-0.0859
24,CTCGGGAA,0.12
25,AGTAACAC,-0.0523

row,Sequence,PBM E-score
1,AAAAGATT,-0.0281
2,CAGAGCTA,-0.249
3,CGCACAAG,-0.0946
4,CACATTTC,0.0884
5,GGTGCCTA,0.0587
6,CAATACAA,-0.176
7,CATAACTA,0.05
8,GAGGAGAA,-0.0895
9,CAGGGAGC,-0.159
10,CTCAGTGC,0.0351
11,CGGGTACG,0.0618
12,CTTAGCCA,-0.0743
13,ACGGCACA,0.0761
14,AACGGACT,0.38
15,GTTTATTA,0.2
16,GTCCTCCA,-0.0381
17,ACATCCAA,-0.101
18,GGGCGGAA,0.241
19,CCTAGGAG,-0.21
20,TAATAGTA,-0.0237
21,ATCGGAAG,0.0789
22,CCGATCAA,0.267
23,GGATGAAC,-0.0337
24,GTCGGCCA,0.224
25,CCCTAAAA,0.0709

row,Sequence,PBM E-score
1,ACCAAGCG,0.103
2,ATGAAAAT,-0.0438
3,TAAGAGGA,-0.036
4,ATGGCCAC,-0.246
5,CAGTTCAG,-0.164
6,AAAATTAC,-0.0201
7,AAGGCGAG,-0.388
8,GTTGAAAA,0.1
9,CCGTCTAA,0.238
10,CTGTAAGA,-0.14
11,AACCGACT,0.0177
12,CGACTGCA,-0.13
13,AACAAACC,0.117
14,AGTGACTA,-0.0125
15,ACAGATGC,-0.224
16,CTCAAGAC,-0.143
17,ACCTATAG,-0.166
18,AGGCCATG,-0.246
19,GCAAAAAC,-0.0141
20,CCTCATAC,-0.0997
21,TCAGTAAA,-0.0602
22,CTCACCCC,0.155
23,GTTAACTA,0.00876
24,CGCCGCGA,0.289
25,CGTCCCAA,-0.247

row,Sequence,PBM E-score
1,CATCTCCC,0.012
2,GGGCACAA,0.117
3,ACGGTCCG,0.282
4,GTCGAAGA,-0.229
5,CGTAGACG,-0.163
6,CGACGTAC,-0.107
7,GCGTGTAA,-0.0616
8,CGCCCTAC,-0.0493
9,AACAACTC,-0.22
10,ATATGAGA,-0.0673
11,CCCATTAG,-0.361
12,ACTAATTG,-0.175
13,GAGAGTGC,-0.209
14,ACGTCGAG,-0.295
15,GAACGTGC,-0.258
16,CGTGCAAA,-0.0367
17,CCAGATCC,-0.138
18,GGCAAACA,-0.0004
19,ATAAACAT,-0.02
20,GAATTGGC,-0.104
21,GTATGCAA,-0.173
22,AACCGGTA,0.261
